Data published in the antibiotic and cytotoxicity screens of Wong et al. (2023).
The list shows a part of the results.

Tested on: HSkMC (human skeletal muscle cells)
Assay: cytotoxicity call (relative viability < 0.9)
Details: 10 µM

SMILES | cytotoxicity call
CCCNC(=O)C[C@H]1CC[C@@H]2[C@@H](COc3ccc(NC(=O)c4ccc5c(c4)OCO5)cc3C(=O)N2C)O1 | inactive
COc1ccc(-c2cc(=O)c3c(OC)c(OC)c(OC)c(OC)c3o2)cc1OC | inactive
O=C(NO)c1ccc(C(=O)N/N=C/[C@H](O)[C@@H](O)[C@@H](O)[C@H](O)CO)cc1 | inactive
CC(C)C(=O)Nc1cccc(Cl)c1 | inactive
c1ccc2c([C@@H]3CCCN3)cccc2c1 | inactive
CN1CCN(C)C2(CCN(C(=O)c3ccn[nH]3)CC2)C1=O | inactive
COC(=O)c1c2oc(c1C(=O)OC)C(=O)N(C)Cc1cn(nn1)C[C@@H](C)NC(=O)N[C@H](CO)CC2 | inactive

Tested on: HepG2
Assay: cytotoxicity call (relative viability < 0.9)
Details: 10 µM

SMILES | cytotoxicity call
CO[C@@H]1CN(C)C(=O)c2cc(NC(=O)C3CC3)ccc2OC[C@H](C)N(C(=O)Cc2ccccn2)C[C@@H]1C | inactive
COc1ccc(NC(=O)Nc2cccc3c2O[C@H](CN(C)S(C)(=O)=O)[C@H](C)CN([C@H](C)CO)C3=O)cc1 | inactive
CC(=O)N1c2ccccc2C2=NNC(=S)N[C@]21O | inactive
C[C@@H]1CCCCO[C@@H](CN(C)Cc2ccc(C(=O)O)cc2)[C@@H](C)CN([C@H](C)CO)C(=O)c2cc(NS(=O)(=O)c3ccc(Cl)cc3)ccc2O1 | inactive
CC1(C)CC(/C=C/c2ccccc2)=Nc2ccccc2N1 | inactive
CCCC#Cc1ccc2c(c1)O[C@H](CN(C)Cc1ccc3c(c1)OCO3)[C@H](C)CN([C@H](C)CO)S2(=O)=O | inactive
COc1ccc(-n2nc(CCC(=O)N(C)O)cc2-c2ccc(Cl)cc2)cc1 | active
C[C@H](CO)N1C[C@H](C)[C@H](CN(C)C(=O)Nc2ccc(C(F)(F)F)cc2)Oc2ccc(NC(=O)Nc3ccc4c(c3)OCO4)cc2CC1=O | inactive
C[C@@H]1CN([C@H](C)CO)C(=O)c2cc(-c3cccc(C(=O)N(C)C)c3)cnc2O[C@H]1CN(C)C(=O)Cc1ccccn1 | inactive
C[C@H]1CN([C@@H](C)CO)C(=O)Cc2cc(NC(=O)Cc3ccccc3)ccc2O[C@@H]1CN(C)S(=O)(=O)c1cn(C)cn1 | inactive
C[C@@H]1CN([C@@H](C)CO)S(=O)(=O)c2ccc(-c3ccncc3)cc2O[C@@H]1CN(C)Cc1ccc(Oc2ccccc2)cc1 | inactive
CC(=O)N1[C@H](CO)[C@H](c2ccccc2)[C@@H]1CNC(=O)CN1CCOCC1 | inactive
NC(C(=O)O)C(O)c1ccc(O)c(O)c1 (centres undefined) | active
C[C@H](CO)N1C[C@H](C)[C@@H](CN(C)Cc2ccc3c(c2)OCCN3C)OCc2cn(nn2)CCCC1=O | inactive
O=C(Nc1cccc2cccnc12)[C@@H]1[C@H](c2ccc(Br)cc2)CN1C(=O)OCc1ccc([N+](=O)[O-])cc1 | inactive
C[C@H](CO)N1C[C@H](C)[C@@H](CN(C)C(=O)NC2CCCCC2)OCCCC[C@H](C)Oc2ccc(NC(=O)Nc3ccc(C(F)(F)F)cc3)cc2C1=O | inactive
Cc1cccc(NC(=O)CN2C(=O)CNC2=O)c1 | inactive
COc1ccc(NC(=O)N(C)C[C@H]2Oc3ccc(NC(=O)CCCN(C)C)cc3C(=O)N([C@H](C)CO)C[C@@H]2C)cc1 | inactive
C[C@@H]1CN([C@H](C)CO)C(=O)Cc2cc(NC(=O)Nc3ccc4c(c3)OCO4)ccc2O[C@H]1CN(C)S(=O)(=O)c1cn(C)cn1 | inactive
C[C@H](CO)N1C[C@H](C)[C@@H](CN(C)C(=O)c2ccncc2)Oc2cc(C#CC3(O)CCCC3)ccc2S1(=O)=O | inactive
C[C@H]1CCCCO[C@H](CN(C)C(=O)Nc2cccc3ccccc23)[C@@H](C)CN([C@@H](C)CO)C(=O)c2cc(NC(=O)Nc3ccc4c(c3)OCO4)ccc2O1 | inactive
CCS(=O)(=O)N1C[C@]2(C1)CN([C@@H](CO)c1[nH]c3cc(ccc3c12)OC)C(=O)Nc1c(noc1C)C | inactive
O=C(O)[C@H]1CCCNC1 | inactive
C[C@H](CO)N1C[C@H](C)[C@@H](CN(C)C(=O)c2cccnc2)Oc2cc(C#CC3(O)CCCC3)ccc2S1(=O)=O | inactive
O=C(C[C@@H]1CC[C@H](NS(=O)(=O)c2ccccc2)[C@@H](CO)O1)NCc1ccncn1 | inactive
C[C@H]1CCCCO[C@@H](CN(C)CC2CCCCC2)[C@@H](C)CN([C@@H](C)CO)C(=O)c2cc(NC(=O)Nc3ccccc3)ccc2O1 | active
C[C@H](CO)N1C[C@H](C)[C@H](CN(C)Cc2ccc(-c3ccccc3)cc2)Oc2c(NS(=O)(=O)c3cccs3)cccc2C1=O | inactive
